# Experimental data as given in the supplement of paper PMC8728848.
# This is one part of the list.
# Tests used:
# Assay in all cases: glycan array binding signal (z-score within array); higher = stronger binding
# Details in all cases: glycan notation: IUPAC condensed, linker removed
# [1] = biological target: Neu5Ac(a2-3)Gal(b1-4)GlcNAc(b1-3)Gal(b1-4)[Fuc(a1-3)]GlcNAc
# In short: (§1)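 The binding signal is a Z-score computed within each array. Data were drawn from 3228 arrays in the Consortium for Functional Glycomics database, restricted to those with a known protein sequence. Scores were averaged over arrays of the same protein sequence at different concentrations or buffers, and over linkers, and negative values can be taken as non-binding.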
# [2] = biological target: Neu5Ac(a2-3)Gal(b1-4)GlcNAc(b1-3)GalNAc
# In short: as §1
# [3] = biological target: Neu5Ac(a2-3)Gal(b1-4)GlcNAc(b1-3)[Neu5Ac(a2-3)Gal(b1-4)GlcNAc(b1-6)]GalNAc
# In short: as §1
# [4] = biological target: Neu5Ac(a2-3)Gal(b1-4)GlcNAc(b1-6)GalNAc
# In short: as §1
# [5] = biological target: Neu5Ac(a2-3)Gal(b1-4)GlcNAc(b1-6)[Gal(b1-3)]GalNAc
# In short: as §1
# [6] = biological target: Neu5Ac(a2-3)Gal(b1-4)GlcNAc(b1-6)[Neu5Ac(a2-3)Gal(b1-3)]GalNAc
# In short: as §1
# [7] = biological target: Neu5Ac(a2-3)Gal(b1-4)GlcNAc6S
# In short: as §1
# [8] = biological target: Neu5Ac(a2-3)Gal(b1-4)[Fuc(a1-3)]GlcNAc
# In short: as §1
# [9] = biological target: Neu5Ac(a2-3)Gal(b1-4)[Fuc(a1-3)]GlcNAc(b1-2)Man
# In short: as §1
# [10] = biological target: Neu5Ac(a2-3)Gal(b1-4)[Fuc(a1-3)]GlcNAc(b1-3)Gal
# In short: as §1
# [11] = biological target: Neu5Ac(a2-3)Gal(b1-4)[Fuc(a1-3)]GlcNAc(b1-3)Gal(b1-4)GlcNAc
# In short: as §1
# [12] = biological target: Neu5Ac(a2-3)Gal(b1-4)[Fuc(a1-3)]GlcNAc(b1-3)Gal(b1-4)[Fuc(a1-3)]GlcNAc(b1-3)Gal(b1-4)[Fuc(a1-3)]GlcNAc
# In short: as §1
# [13] = biological target: Neu5Ac(a2-3)Gal(b1-4)[Fuc(a1-3)]GlcNAc(b1-3)GalNAc
# In short: as §1
# [14] = biological target: Neu5Ac(a2-3)Gal(b1-4)[Fuc(a1-3)]GlcNAc(b1-6)[Gal(b1-3)]GalNAc
# In short: as §1
# [15] = biological target: Neu5Ac(a2-3)Gal(b1-4)[Fuc(a1-3)]GlcNAc(b1-6)[Neu5Ac(a2-3)Gal(b1-3)]GalNAc
# In short: as §1
# [16] = biological target: Neu5Ac(a2-3)Gal(b1-4)[Fuc(a1-3)]GlcNAc6S
# In short: as §1
# [17] = biological target: Neu5Ac(a2-3)Gal6S(b1-4)GlcNAc
# In short: as §1
# [18] = biological target: Neu5Ac(a2-3)Gal6S(b1-4)[Fuc(a1-3)]GlcNAc
# In short: as §1
# Neu5Ac(a2-3)GalNAc = biological target: Neu5Ac(a2-3)GalNAc
# In short: as §1
# [19] = biological target: Neu5Ac(a2-3)GalNAc(b1-4)GlcNAc
# In short: as §1
# [20] = biological target: Neu5Ac(a2-3)[GalNAc(b1-4)]Gal(b1-4)Glc
# In short: as §1
# [21] = biological target: Neu5Ac(a2-3)[GalNAc(b1-4)]Gal(b1-4)GlcNAc
# In short: as §1
# [22] = biological target: Neu5Ac(a2-3)[GalNAc(b1-4)]Gal(b1-4)GlcNAc(b1-3)GalNAc
# In short: as §1
# [23] = biological target: Neu5Ac(a2-3)[Neu5Ac(a2-6)]GalNAc
# In short: as §1
# Neu5Ac(a2-6)Gal = biological target: Neu5Ac(a2-6)Gal
# In short: as §1
# [24] = biological target: Neu5Ac(a2-6)Gal(b1-3)GlcNAc(b1-3)[Gal(b1-4)GlcNAc(b1-6)]Gal(b1-4)Glc
# In short: as §1
# Neu5Ac(a2-6)Gal(b1-4)Glc = biological target: Neu5Ac(a2-6)Gal(b1-4)Glc
# In short: as §1
# [25] = biological target: Neu5Ac(a2-6)Gal(b1-4)GlcNAc
# In short: as §1
# [26] = biological target: Neu5Ac(a2-6)Gal(b1-4)GlcNAc(b1-2)Man
# In short: as §1
# [27] = biological target: Neu5Ac(a2-6)Gal(b1-4)GlcNAc(b1-2)Man(a1-3)Man(b1-4)GlcNAc(b1-4)GlcNAc
# In short: as §1
# [28] = biological target: Neu5Ac(a2-6)Gal(b1-4)GlcNAc(b1-2)Man(a1-3)[Gal(b1-4)GlcNAc(b1-2)Man(a1-6)]Man(b1-4)GlcNAc(b1-4)GlcNAc
# In short: as §1
# [29] = biological target: Neu5Ac(a2-6)Gal(b1-4)GlcNAc(b1-2)Man(a1-3)[GlcNAc(b1-2)Man(a1-6)]Man(b1-4)GlcNAc(b1-4)GlcNAc
# In short: as §1
# [30] = biological target: Neu5Ac(a2-6)Gal(b1-4)GlcNAc(b1-2)Man(a1-3)[GlcNAc(b1-4)][Neu5Ac(a2-6)Gal(b1-4)GlcNAc(b1-2)Man(a1-6)]Man(b1-4)GlcNAc(b1-4)GlcNAc
# In short: as §1
# [31] = biological target: Neu5Ac(a2-6)Gal(b1-4)GlcNAc(b1-2)Man(a1-3)[Man(a1-6)]Man(b1-4)GlcNAc(b1-4)GlcNAc
# In short: as §1
# [32] = biological target: Neu5Ac(a2-6)Gal(b1-4)GlcNAc(b1-2)Man(a1-3)[Neu5Ac(a2-3)Gal(b1-4)GlcNAc(b1-2)Man(a1-6)]Man(b1-4)GlcNAc(b1-4)GlcNAc
# In short: as §1
# [33] = biological target: Neu5Ac(a2-6)Gal(b1-4)GlcNAc(b1-2)Man(a1-3)[Neu5Ac(a2-6)Gal(b1-4)GlcNAc(b1-2)Man(a1-6)]Man(b1-4)GlcNAc(b1-4)GlcNAc
# In short: as §1
# [34] = biological target: Neu5Ac(a2-6)Gal(b1-4)GlcNAc(b1-2)Man(a1-3)[Neu5Ac(a2-6)Gal(b1-4)GlcNAc(b1-2)Man(a1-6)]Man(b1-4)GlcNAc(b1-4)[Fuc(a1-6)]GlcNAc
# In short: as §1
# [35] = biological target: Neu5Ac(a2-6)Gal(b1-4)GlcNAc(b1-2)Man(a1-6)Man(b1-4)GlcNAc(b1-4)GlcNAc
# In short: as §1
# [36] = biological target: Neu5Ac(a2-6)Gal(b1-4)GlcNAc(b1-2)Man(a1-6)[Gal(b1-4)GlcNAc(b1-2)Man(a1-3)]Man(b1-4)GlcNAc(b1-4)GlcNAc
# In short: as §1
# [37] = biological target: Neu5Ac(a2-6)Gal(b1-4)GlcNAc(b1-2)Man(a1-6)[GlcNAc(b1-2)Man(a1-3)]Man(b1-4)GlcNAc(b1-4)GlcNAc
# In short: as §1
# [38] = biological target: Neu5Ac(a2-6)Gal(b1-4)GlcNAc(b1-2)Man(a1-6)[Man(a1-3)]Man(b1-4)GlcNAc(b1-4)GlcNAc
# In short: as §1
# [39] = biological target: Neu5Ac(a2-6)Gal(b1-4)GlcNAc(b1-2)[Neu5Ac(a2-6)Gal(b1-4)GlcNAc(b1-4)]Man(a1-3)[GlcNAc(b1-4)][Neu5Ac(a2-6)Gal(b1-4)GlcNAc(b1-2)[Neu5Ac(a2-6)Gal(b1-4)GlcNAc(b1-6)]Man(a1-6)]Man(b1-4)GlcNAc(b1-4)GlcNAc
# In short: as §1
# [40] = biological target: Neu5Ac(a2-6)Gal(b1-4)GlcNAc(b1-2)[Neu5Ac(a2-6)Gal(b1-4)GlcNAc(b1-4)]Man(a1-3)[GlcNAc(b1-4)][Neu5Ac(a2-6)Gal(b1-4)GlcNAc(b1-4)Man(a1-6)]Man(b1-4)GlcNAc(b1-4)GlcNAc
# In short: as §1
# [41] = biological target: Neu5Ac(a2-6)Gal(b1-4)GlcNAc(b1-2)[Neu5Ac(a2-6)Gal(b1-4)GlcNAc(b1-6)]Man(a1-6)[Neu5Ac(a2-6)Gal(b1-4)GlcNAc(b1-2)Man(a1-3)][GlcNAc(b1-4)]Man(b1-4)GlcNAc(b1-4)GlcNAc
# In short: as §1
# [42] = biological target: Neu5Ac(a2-6)Gal(b1-4)GlcNAc(b1-3)Gal(b1-3)GlcNAc
# In short: as §1
binder,measurement,setting,value
Banana lectin (Musa acuminata) (protein) MNGAIKVGAWGGNGGSAFDMGPAYRIISVKIFSGDVVDGVDVTFTYYGKTETRHYGGSGGTPHEIVLQEGEYLVGMAGEVANYHGAVVLGKLGFSTNKKAYGPFGNTGGTPFSLPIAAGKISGFFGRGGKFLDAIGVYLEPLEHHHHHH,glycan array binding signal (z-score),[1],-0.185
same,glycan array binding signal (z-score),[2],-0.187
same,glycan array binding signal (z-score),[3],-0.212
same,glycan array binding signal (z-score),[4],-0.217
same,glycan array binding signal (z-score),[5],-0.171
same,glycan array binding signal (z-score),[6],-0.131
same,glycan array binding signal (z-score),[7],-0.202
same,glycan array binding signal (z-score),[8],-0.22
same,glycan array binding signal (z-score),[9],-0.209
same,glycan array binding signal (z-score),[10],-0.201
same,glycan array binding signal (z-score),[11],-0.183
same,glycan array binding signal (z-score),[12],-0.265
same,glycan array binding signal (z-score),[13],-0.165
same,glycan array binding signal (z-score),[14],-0.234
same,glycan array binding signal (z-score),[15],-0.189
same,glycan array binding signal (z-score),[16],-0.201
same,glycan array binding signal (z-score),[17],-0.212
same,glycan array binding signal (z-score),[18],-0.205
same,glycan array binding signal (z-score),Neu5Ac(a2-3)GalNAc,-0.199
same,glycan array binding signal (z-score),[19],-0.2
same,glycan array binding signal (z-score),[20],-0.132
same,glycan array binding signal (z-score),[21],-0.169
same,glycan array binding signal (z-score),[22],-0.184
same,glycan array binding signal (z-score),[23],-0.219
same,glycan array binding signal (z-score),Neu5Ac(a2-6)Gal,-0.233
same,glycan array binding signal (z-score),[24],-0.22
same,glycan array binding signal (z-score),Neu5Ac(a2-6)Gal(b1-4)Glc,-0.279
same,glycan array binding signal (z-score),[25],-0.259
same,glycan array binding signal (z-score),[26],-0.201
same,glycan array binding signal (z-score),[27],-0.133
same,glycan array binding signal (z-score),[28],-0.225
same,glycan array binding signal (z-score),[29],0.225
same,glycan array binding signal (z-score),[30],-0.218
same,glycan array binding signal (z-score),[31],0.946
same,glycan array binding signal (z-score),[32],0.33
same,glycan array binding signal (z-score),[33],-0.198
same,glycan array binding signal (z-score),[34],-0.075
same,glycan array binding signal (z-score),[35],-0.19
same,glycan array binding signal (z-score),[36],0.024
same,glycan array binding signal (z-score),[37],0.417
same,glycan array binding signal (z-score),[38],3.56
same,glycan array binding signal (z-score),[39],-0.189
same,glycan array binding signal (z-score),[40],-0.316
same,glycan array binding signal (z-score),[41],-0.204
same,glycan array binding signal (z-score),[42],-0.225
